Experimental data published in PubChem BioAssay AID485294 (National Center for Advancing Translational Sciences (NCATS), 2010).
In all, about 370,000 compounds went through this assay and about 150 (0.041%) were called active. This list was built around the results that the source calls inconclusive (neither active nor inactive); the mix of calls is not that of the screen. Calls come from the whole dose curve; as a rule, active = well fitted inhibition curve with a large enough effect; inconclusive = small, poorly fitted or top-dose-only effect; inactive = flat fitted curve, though single readings scatter. Potencies of inconclusive entries are left out as doubtful fits.
Note: nearly all actives have a fitted effect of over 25% in size.
Potency is the fitted concentration of half-maximal effect; tags give direction and shape of the fitted curve.
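Throughout, for activity change, negative = inhibition: 0% = no-compound wells and -100% = no-enzyme wells.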

These compounds were tested against Beta-lactamase (Escherichia coli (strain K12)) (UniProt P00811) (assay: qHTS Inhibitors of AmpC Beta-Lactamase (assay with detergent)). Conditions: AmpC hydrolysis of nitrocefin, absorbance 480 nm, 0.01% Triton; activity change, negative = inhibition: at 114 µM (top of the series).
Sequence of UniProt P00811 (P00811 whole entry, looked up): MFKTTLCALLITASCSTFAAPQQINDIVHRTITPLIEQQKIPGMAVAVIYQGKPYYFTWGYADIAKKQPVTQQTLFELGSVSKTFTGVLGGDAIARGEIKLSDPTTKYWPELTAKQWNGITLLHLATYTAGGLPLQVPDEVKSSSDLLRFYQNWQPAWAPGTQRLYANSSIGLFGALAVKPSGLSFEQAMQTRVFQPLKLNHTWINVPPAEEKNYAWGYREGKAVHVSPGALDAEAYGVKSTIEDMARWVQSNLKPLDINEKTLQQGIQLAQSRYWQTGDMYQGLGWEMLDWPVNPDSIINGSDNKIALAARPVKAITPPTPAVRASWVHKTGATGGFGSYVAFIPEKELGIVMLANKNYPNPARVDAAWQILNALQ
Outline: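 20 mM phosphate pH 7.0 + 0.01% (detergent screen) or 0.0001% Triton X-100; 5.3 nM AmpC reagent; cpd preinc 15 min RT; nitrocefin (800 uM stock) to start; A480 q20 s × 4 min; Activity was normalised to no-enzyme and no-compound control wells.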
`COCCCNC(=O)Nc1cc(C(=O)NCc2ccc(OC)cc2)ccc1N1CCCC1` was tested, and the “activity change, negative = inhibition” value was inactive: 2.94%. For `COc1ccc(C(NC(=O)c2ccco2)c2ccc(OC)c(OC)c2)cc1OC`, the Potency was inconclusive [inhibitor, full curve, poor fit]. `CCC(C(=O)Nc1cc(C(=O)Nc2cc(C)ccn2)ccc1Cl)c1ccccc1` (stereo not given) was tested, and the “activity change, negative = inhibition” value was inactive: -2.83%. With `Cc1ccc2cc(C#N)c(NCCNC(=S)NCCCN(C)C)nc2c1C` the “activity change, negative = inhibition” value was inactive: 5.45%. With `CCOc1ccc(NS(=O)(=O)c2cc(NC(=O)c3ccc(C)cc3)ccc2Cl)cc1` the Potency was inconclusive [inhibitor, partial curve]. With `COc1ccc(CCNC(=O)C2CC=CCC2C(=O)O)cc1` (stereo not given) the “activity change, negative = inhibition” value was inactive: -10.4%. For `O=C1NC(=O)C(=CN2CCc3ccccc32)C(=O)N1`, the Potency was inconclusive [inhibitor, partial curve]. In the case of `O=C(Nc1nnc(-c2cc(Cl)ccc2Cl)o1)c1ccco1`, the Potency is reported as inconclusive [inhibitor, partial curve, poor fit]. With `Cc1cc(C)nc(N2CCN(c3nc(C)cc(C)n3)CC2)n1` the Potency was inconclusive [inhibitor, full curve, poor fit]. For `COc1ccc(C(=O)Nc2ccccc2C(=O)Nc2cccc(C)n2)cc1`, the Potency was inconclusive [inhibitor, full curve]. `CCOC(=O)CCc1c(C)n(CC)c2cc(-c3ccccc3OC)nn2c1=O` was tested, and the Potency was inconclusive [inhibitor, full curve, poor fit]. In the case of `CCC(=O)N1CCc2cc(S(=O)(=O)N3CCN(c4ccccc4)CC3)ccc21`, the Potency is reported as inconclusive [inhibitor, full curve]. In the case of `CC(NC(=O)CN(C)CC(=O)Nc1ccc(Cl)c(C(F)(F)F)c1)c1ccccc1` (stereo not given), the Potency is reported as inconclusive [inhibitor, full curve, poor fit]. `CC(=O)Nc1ccc(C2CC(c3ccc(Cl)cc3)=NN2c2ccccc2)cc1` (stereo not given) was tested, and the “activity change, negative = inhibition” value was inactive: -9.91%. With `CCC(=NC(C)c1ccccc1)c1c(O)n(C)c(=O)n(C)c1=O` (stereo not given) the Potency was inconclusive [inhibitor, full curve]. In the case of `Nc1cc(=O)[nH]n1C1CCN(c2ccccc2)CC1`, the “activity change, negative = inhibition” value is reported as inactive: 7.23%. With `CCOc1ccccc1C(=O)NC1CCN(CC(=O)Nc2cc(OC)ccc2OC)CC1` the Potency was inconclusive [inhibitor, full curve]. `O=C(NCc1ccccc1)NC12CC3CC(CC(C3)C1)C2` was tested, and the “activity change, negative = inhibition” value was inactive: -3.45%. With `COc1ccc(CCC(=O)NNC(=O)c2ccc(F)cc2)cc1` the Potency was inconclusive [inhibitor, single point]. For `CCC(C)[C@H](NC(=O)NCc1ccccc1Cl)C(=O)O` (stereo not given in full), the Potency was inconclusive [inhibitor, full curve]. With `COc1cccc(-c2ccc(C#N)c(OC(=O)c3ccc(Cl)cc3)n2)c1` the Potency was inconclusive [inhibitor, single point]. With `O=C(NCCCc1ccccc1)c1ccncc1` the “activity change, negative = inhibition” value was inactive: -13%. For `O=C(c1ccccc1)c1nc2ccccc2[nH]c1=O`, the Potency was inconclusive [inhibitor, partial curve]. With `O=C(NCc1cccs1)c1cnn2cccnc12` the Potency was inconclusive [inhibitor, full curve]. `COc1ccc(CC(=O)NNC(=S)Nc2ccccc2)cc1Br` was tested, and the Potency was inconclusive [inhibitor, single point]. For `Fc1cccc(NCc2cccn2-c2nnc(N3CCOCC3)s2)c1`, the “activity change, negative = inhibition” value was inactive: 3.24%. For `Cc1ccc(S(=O)(=O)c2cc3c(=O)n4ccccc4nc3n(CC3CCCO3)c2=N)cc1C` (stereo not given), the Potency was inconclusive [inhibitor, full curve]. For `COc1cc2c(cc1OC)CN(C(=O)c1cc3ccccc3oc1=O)CC2`, the Potency was inconclusive [inhibitor, full curve, poor fit]. For `CCCC(C)NS(=O)(=O)c1ccc(OC)c(C)c1` (stereo not given), the Potency was inconclusive [inhibitor, full curve, poor fit]. With `CCOC(=O)Cc1nnc2c(Nc3ccccc3F)nc3nonc3n12` the Potency was inconclusive [inhibitor, full curve]. With `COc1ccc(-c2nnc(NC(=O)C(C)C)s2)c(OC)c1` the Potency was inconclusive [inhibitor, full curve]. `COc1ccc(CCN=C(NS(=O)(=O)c2ccccc2)c2ccccc2)cc1OC` was tested, and the Potency was inconclusive [inhibitor, single point]. `COC(=O)C(Cc1ccc(O)cc1)NC(=O)CCOc1ccc(OC)cc1` (stereo not given) was tested, and the Potency was inconclusive [inhibitor, full curve, poor fit]. In the case of `CN(C)CCCn1c2c(c(SCC(=O)Nc3ccc4c(c3)OCO4)nc1=O)CCC2`, the Potency is reported as inconclusive [inhibitor, single point]. `Cc1ccc(S(=O)(=O)N2CCN(S(=O)(=O)c3ccccc3)C2)cc1` was tested, and the Potency was inconclusive [inhibitor, full curve, poor fit]. With `Nc1nc(SCC(=O)Nc2ccc([N+](=O)[O-])cc2)n[nH]1` the Potency was inconclusive [inhibitor, single point]. In the case of `COc1ccccc1CCC(=O)OCC(=O)N1CCN(S(=O)(=O)c2ccc(C)cc2C)CC1`, the Potency is reported as inconclusive [inhibitor, full curve, poor fit]. `COCC(=O)Nc1cc(Cl)ccc1C` was tested, and the “activity change, negative = inhibition” value was inactive: -4.69%. In the case of `CCSc1nnc([C@@H]2CCCN2C(=O)OC(C)(C)C)o1`, the Potency is reported as inconclusive [inhibitor, partial curve, poor fit]. For `CC(Sc1nc2nn(-c3ccccc3)c(=O)c-2c2n1CCCCC2)C(N)=O` (stereo not given), the Potency was inconclusive [inhibitor, single point]. In the case of `CCc1ccc(C(=O)CN(C#N)c2nc(C)cc(C)n2)cc1`, the “activity change, negative = inhibition” value is reported as inactive: -2.5%. `Cc1nn(-c2ccc(C(=O)Nc3nnc(C4CC4)s3)cc2)c(C)c1Cl` was tested, and the “activity change, negative = inhibition” value was inactive: -17%. With `CCO/N=C1\C(=O)N(c2ccccc2)c2ccccc21` the Potency was inconclusive [inhibitor, full curve, poor fit]. For `Cc1ccc(C(=O)Nc2c[nH]c(=O)[nH]c2=O)cc1`, the Potency was inconclusive [inhibitor, partial curve, poor fit]. In the case of `CC12CCC(C(=O)N(c3ccc(Cl)cc3)C1=O)C2(C)C` (stereo not given), the Potency is reported as inconclusive [inhibitor, partial curve]. In the case of `CCCC(C)NC(=O)Cc1ccccc1[N+](=O)[O-]` (stereo not given), the Potency is reported as inconclusive [inhibitor, full curve, poor fit]. `CCOc1ccc(NC(=O)NCc2ccc3c(c2)CCN3C(C)=O)cc1` was tested, and the “activity change, negative = inhibition” value was inactive: -3.33%. For `CC(O)C(NS(=O)(=O)c1ccc(Cl)cc1)C(=O)OCc1nnc(-c2ccccc2)o1` (stereo not given), the Potency was inconclusive [inhibitor, full curve]. `O=Cc1c(NCc2ccc(F)cc2)c2ccccc2[nH]c1=O` was tested, and the “activity change, negative = inhibition” value was inactive: -3.89%. With `O=C(NCC1CCCO1)/C(=C\c1ccc(Cl)cc1)NC(=O)c1ccccc1` (stereo not given) the Potency was inconclusive [inhibitor, single point]. In the case of `COc1ccc(NC(=O)COC(=O)c2cc(Cl)ccc2O)cc1S(=O)(=O)N1CCCCC1`, the Potency is reported as inconclusive [inhibitor, full curve, poor fit]. With `COc1cccc(NC(=O)Cn2c(=O)n(CCc3ccccc3)c(=O)c3c4c(sc32)CN(C(C)=O)CC4)c1` the “activity change, negative = inhibition” value was inactive: -9.09%. In the case of `Cc1ccc(C(=O)c2oc3ccccc3c2NC(=O)COc2ccccc2Cl)cc1`, the “activity change, negative = inhibition” value is reported as inactive: -2.01%. With `CC(=O)c1c(C)n(-c2ccccc2)c2ccc(O)cc12` the Potency was inconclusive [inhibitor, full curve, poor fit]. For `Cc1cc(C(=O)CSc2nnnn2-c2ccccc2)c(C)n1-c1ccc2c(c1)OCO2`, the “activity change, negative = inhibition” value was inactive: 3.93%. `NC(=O)C1CN(S(=O)(=O)c2ccc(Cl)cc2F)c2ccccc2O1` (stereo not given) was tested, and the “activity change, negative = inhibition” value was inactive: -9.25%. In the case of `COc1c(Cl)cc(C(=O)N(Cc2ccc(C)o2)C2CCS(=O)(=O)C2)cc1Cl` (stereo not given), the Potency is reported as inconclusive [inhibitor, full curve, poor fit]. In the case of `COc1ccc(OC)c(S(=O)(=O)N2CCC(C(=O)NCCC3=CCCCC3)CC2)c1`, the Potency is reported as inconclusive [inhibitor, full curve, poor fit]. With `Cc1ccc(N2Cc3ccccc3OC(C)C2=O)cc1` (stereo not given) the Potency was inconclusive [inhibitor, full curve, poor fit]. With `Cc1nn(Cc2c(F)c(F)c(F)c(F)c2F)c(C)c1NC(=O)c1ccc(COc2ccc(F)cc2)o1` the Potency was inconclusive [inhibitor, partial curve]. For `C=CCSc1nnc(C)n1-c1ccc(Cl)cc1`, the Potency was inconclusive [inhibitor, single point]. In the case of `O=C(CCCn1c(SCC(=O)NCCc2ccccc2)nc2ccccc2c1=O)NCC1CCCO1` (stereo not given), the “activity change, negative = inhibition” value is reported as inactive: 0.764%. With `COc1ccc(C2(c3ccc(O)cc3O)CC(c3ccccc3Cl)NC(=S)N2)cc1` (stereo not given) the “activity change, negative = inhibition” value was inactive: -5.93%. `O=C1NC(c2cccs2)Nc2sc3c(c21)CCCC3` (stereo not given) was tested, and the “activity change, negative = inhibition” value was inactive: -2.1%. In the case of `CCOC(=O)c1c(NC(=O)CSc2cn(CCNC(=O)c3ccccc3OC)c3ccccc23)sc2c1CCC2`, the “activity change, negative = inhibition” value is reported as inactive: 8.12%. With `Cc1ccsc1/C=C1/SC(N2CCOCC2)=NC1=O` the Potency was inconclusive [inhibitor, full curve, poor fit]. With `CN1CC2=Cc3ccccc3OC23Oc2ccccc2C=C3C1` the “activity change, negative = inhibition” value was inactive: -17.7%. With `CC(NC(=O)[C@H](Cc1c[nH]c2ccccc12)NC(=O)[C@@H]1Cc2ccccc2CN1)c1ccccc1` (stereo not given in full) the Potency was inconclusive [inhibitor, partial curve]. In the case of `Cc1oc2ccc(O)c(CN3CCN(C)CC3)c2c1C(=O)Nc1cccc(C(F)(F)F)c1`, the “activity change, negative = inhibition” value is reported as inactive: 5.24%. For `Cc1cc(C)cc(N(CC(=O)N2CCN(Cc3ccccc3)CC2)S(=O)(=O)c2c(C)noc2C)c1`, the Potency was inconclusive [inhibitor, full curve, poor fit].
